In PubChem BioAssay AID330 (DTP/NCI, 2004):
Inconclusive results and toxic doses are left out. For part of its entries the source gives two or more results. The list is limited to them. There may be further records. The records of an entry are repeats (runs, samples, wells, individuals or studies).

Tested on: P388 leukemia ip, CD2F1 mice, survival T/C
Test: NCI In Vivo Anticancer Drug Screen. Data for tumor model P388 Leukemia (intraperitoneal) in CD2F1 (CDF1) mice
Details: endpoint: median survival time, higher = longer survival
[1] = dose: 100.0 mg/kg/injection, schedule: Q01DX009 (ip), vehicle: saline with Tween-80

Compound: CC1OC(OC2CC(O)(C(=O)CO)Cc3c(O)c4c(c(O)c32)C(=O)c2ccccc2C4=O)CC(N)C1O (stereo unspecified)
- T/C (dose: 0.13 mg/kg/injection, schedule: Q04DX003 (ip), vehicle: water): 117 % of control and 166 % of control

Compound: C[C@@H]1CN1C1=CC(=O)C(N2C[C@H]2C)=CC1=O
- T/C (dose: 10.0 mg/kg/injection, schedule: Q01DX009 (ip), vehicle: gum acacia): 111 % of control and 166 % of control

Compound: CC1(C)N=C(N)N=C(N)N1c1ccc(CCC(=O)Nc2ccc(S(=O)(=O)F)cc2)cc1
- T/C [1]: 93 % of control and 168 % of control

Compound: CCSC(=O)N1c2ccc(OC)cc2C=CC1C#N (stereo unspecified)
- T/C [1]: 109 % of control and 171 % of control

Compound: CCCCSc1ccc(NN=O)nc1
- T/C (dose: 3.12 mg/kg/injection, schedule: Q01DX009 (ip), vehicle: water): 118 % of control and 153 % of control

Compound: ClC(Cl)(Cl)C1=NCc2nnn(Cc3ccccc3)c2N1
- T/C (dose: 50.0 mg/kg/injection, schedule: Q01DX009 (ip), vehicle: saline with Tween-80): 107 % of control and 189 % of control
